# In all, about 350,000 compounds went through this assay and about 9,900 (2.8%) were called active. Inconclusive results, whose numbers are uncertain, are shown with a selection of clear calls. Calls come from the whole dose curve; as a rule, active = well fitted activation curve with a large enough effect; inconclusive = small, poorly fitted or top-dose-only effect; inactive = no such curve, though single readings can be large or run the other way. Potencies of inconclusive entries are left out as doubtful fits.
# Experiment: A quantitative high throughput screen for small molecules that induce DNA re-replication in MCF 10a normal breast cells. For activity, positive = re-replication: % of control where 0% means no effect. Note: nearly all actives have a fitted effect of over 50% in size.
# Details: MCF 10A DNA re-replication, Hoechst nuclear intensity, 48 h; activity, positive = re-replication: at 46.1 µM (top of the series)
# Potency is the fitted concentration of half-maximal effect; tags give direction and shape of the fitted curve.
Compound,Potency,"activity, positive = re-replication"
CCCn1c(=O)c(C(=O)NCCc2ccc(Cl)cc2)c(O)c2ccccc21,"inconclusive [activator, partial curve, poor fit]",–
Cc1nn(Cc2ccccc2)c(C)c1NC(=O)c1ccc([N+](=O)[O-])cc1[N+](=O)[O-],–,inactive: -40.6%
O=C(c1cc2ccccc2oc1=O)N(Cc1ccccc1)Cc1ccc2c(c1)OCO2,"inconclusive [activator, full curve, poor fit]",–
Cc1cc(C)nc(N2CCCC(C(=O)Nc3ccc4c(c3)OCCO4)C2)n1 (stereo not given),–,inactive: 7.44%
O=C(Nc1cccc(F)c1)c1cc(S(=O)(=O)NCCC2=CCCCC2)ccc1F,"inconclusive [activator, single point]",–
COc1ccc(Nc2nc(C(=O)N3CCc4cc(OC)c(OC)cc4C3)cs2)cc1,"inconclusive [activator, single point]",–
COc1cc2c(cc1OC)-c1cc(=Nc3c(C)cc(C)cc3C)n(C)c(=O)n1CC2,"inconclusive [activator, partial curve, poor fit]",–
CCc1nc(C)cn1S(=O)(=O)c1cc(OC)c(C)cc1C,–,inactive: 1.93%
Cc1cc(NC(=O)CSc2ccc(F)cc2)no1,"inconclusive [activator, full curve, poor fit]",–
NC(=O)c1ccsc1NC(=O)c1ccc([N+](=O)[O-])o1,active: 3.66 µM,–
COC(=O)[C@@]1(C)[C@H]2C(=O)N(Cc3ccccc3)C(=O)[C@H]2[C@H]2CN=C(SC)N21,"inconclusive [activator, partial curve, poor fit]",–
O=C1C=C(c2ccccc2)C[C@@H](c2ccc(Cl)cc2)C1,"inconclusive [activator, partial curve, poor fit]",–
O=C(CCl)Nc1ccc(-c2ccccc2)cc1,active: 16.4 µM,–
CC(C)NC1=C(Cl)C(=O)c2ccccc2C1=O,"inconclusive [activator, single point]",–
O=C(CN1CCN(C(=O)CNC(=O)c2ccc3c(c2)OCO3)CC1)Nc1ccccc1Cl,–,inactive: -1.48%
O=C(OCc1ccccc1F)c1cc([N+](=O)[O-])ccc1N1CCOCC1,–,inactive: 11.5%
O=C(NCC1CCCO1)c1cc2c([nH]c3ccccc32)c(-c2cccc(Br)c2)n1 (stereo not given),"inconclusive [activator, single point]",–
Nc1nc(SCC(=O)Nc2cc(-c3ccccc3)nn2-c2ccccc2)n[nH]1,"inconclusive [activator, single point]",–
COC(=O)C12OCC34C(CC5C(C)=C(O)C(=O)CC5(C)C3C(O)C1O)OC(=O)C(OC(=O)C=C(C)C)C24 (stereo not given),"inconclusive [activator, full curve]",–
CCn1c(O)c(N=NC(=O)c2cccc(S(=O)(=O)N3CCCCC3)c2)c2ccccc21,"inconclusive [activator, partial curve, poor fit]",–
Clc1ccc(N2COC3c4cccc5cccc(c45)C32)cc1 (stereo not given),–,inactive: 3.74%
O=c1c2ccccc2sn1-c1cc(S(=O)(=O)N2CCOCC2)ccc1N1CCCC1,"inconclusive [activator, single point]",–
O=C(CSc1ncccn1)Nc1ncc(C(F)(F)F)cc1Cl,active: 2.06 µM,–

Compound,Potency,"activity, positive = re-replication"
COc1cccc(C(=O)NCCS(=O)(=O)NCc2ccccn2)c1,–,inactive: -0.653%
CCOC(=O)CC(=O)CSc1nc2c(cc1C#N)CCC2,active: 4.61 µM,–
CC(C)Cn1c(N)c(C(=O)NCC2CCCO2)c2nc3ccccc3nc21 (stereo not given),active: 2.06 µM,–
CCC(C)[C@H](NC(=O)NCc1ccco1)C(=O)OC (stereo not given in full),"inconclusive [activator, single point]",–
C=CCC[C@@H](Cc1ccc(F)cc1)C(=O)OC[C@@H](Cc1c[nH]c2ccccc12)NC(=O)[C@H](CC=C)CC(=O)N(CCO)Cc1ccccc1,active: 23.1 µM,–
O=C(/C=C/c1ccco1)Nc1ccc(Oc2ccccc2)cc1,"inconclusive [activator, partial curve, poor fit]",–
CC(=O)n1cc(C(C[N+](=O)[O-])SCCN)c2ccccc21 (stereo not given),active: 5.17 µM,–
CC(=O)Nc1ccc(S(=O)(=O)NCCC(=O)Nc2cccc(Cl)c2)cc1,–,inactive: 0.741%
Cc1cc(C)cc(-n2nnnc2SCC(=O)Nc2cccc(NC(=O)c3ccco3)c2)c1,"inconclusive [activator, partial curve, poor fit]",–
COc1ccccc1OC(C)C(=O)N(Cc1ccco1)C1CCS(=O)(=O)C1 (stereo not given),–,inactive: -6.09%
Cc1ccc(/C=C/C(=O)N2CCN(c3ccc(F)cc3)CC2)o1,"inconclusive [activator, single point]",–
O=C1CCN(Cc2ccc(O)cc2)CCN1CCO,–,inactive: 3.55%
O=c1c2ccccc2nc(SCc2cc(F)ccc2F)n1C1CCCC1,"inconclusive [activator, full curve]",–
CC(C)(C)c1ccc(-c2noc(CCC(=O)NCC3CCCO3)n2)cc1 (stereo not given),–,inactive: 2.19%
O=[N+]([O-])c1ncccc1OCc1ccccc1Br,"inconclusive [activator, single point]",–
OC(COc1ccccc1F)CN1CCC(Cc2ccccc2)CC1 (stereo not given),"inconclusive [activator, partial curve]",–
COc1ccc(-c2nc3c(-c4ccccc4)cnn3cc2C)cc1F,"inconclusive [activator, single point]",–
COc1ccc(-c2noc(CSc3nnc(CCc4ccccc4)n3-c3ccccc3)n2)cc1OC,"inconclusive [activator, single point]",–
C=CCn1c(SCC(=O)N2CCc3ccccc3C2)nc2sc(C)cc2c1=O,"inconclusive [activator, partial curve]",–
C=CCSc1nnc(Cc2c(C)[nH]c3ccccc23)o1,–,inactive: 4.15%
CC(OC(=O)CN1C(=O)NC2(CCCCC2C)C1=O)c1ccccc1 (stereo not given),"inconclusive [activator, partial curve, poor fit]",–
Cc1cc(C)c2[nH]c(=O)c(CN(Cc3ccc4c(c3)OCO4)Cc3nnnn3C3CCCC3)cc2c1,–,inactive: -0.853%

# From PubChem BioAssay AID624296 (National Center for Advancing Translational Sciences (NCATS), 2012)
